The supplement of paper PMC10126150
Sequences with one replicate were seen in a single cluster, so their values are uncertain.

Test system: ATP
Assay: switch fluorescence ratio, 500 uM ATP over buffer (Cy3 cluster intensity, sum of 5 cycles each) (fold (ratio)); higher = stronger signal-on switching upon ATP binding; sequences stand for … in TCGTCGGCAGCGTCAGATGTGTATAAGAGACAGTTTTTTTTTTTTTTTTTTTTTTTTT…TC
Details: aptamer strand: ATP DNA aptamer (quencher-CACCTGGGGGAGTATTGCGGAGGAAGG + anchor), 100 nM annealed; ATP concentration: 500 uM; one replicate
In short: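 Per cluster, summed Cy3 intensity from the target cycles was divided by that from the buffer cycles to give the fluorescence ratio, then averaged per switch-domain sequence. Clusters outside 100-1000 RFU were excluded. The Cy3-labelled switching-strand clusters, on a modified Illumina MiSeq flow-cell, were annealed to 100 nM quencher-labelled ATP aptamer and imaged in selection buffer, then after 15 min with 500 uM ATP at 22 °C, for five cycles with NaOH stripping and re-annealing between them.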
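Note: ATP exposure 15 min at 22 °C before imaging.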

## GTCGGTGCTG
  switch fluorescence ratio: 0.987

## TTAGAAGCAC
  switch fluorescence ratio: 1.18

## TGCTTCGACC
  switch fluorescence ratio: 1.12

## TTTAATATAA
  switch fluorescence ratio: 1.02

## CGCAATTTTT
  switch fluorescence ratio: 4.02

## TCACCGTCGC
  switch fluorescence ratio: 1.11

## TTGGTGTCAC
  switch fluorescence ratio: 0.961

## TCTGTGTCTG
  switch fluorescence ratio: 0.955

## AACGAGGGCG
  switch fluorescence ratio: 1.07

## TTCACATAAG
  switch fluorescence ratio: 0.998

## CAAGGGGCTC
  switch fluorescence ratio: 1.01

## ATACTATCGT
  switch fluorescence ratio: 1.02

## CTAATTAGTA
  switch fluorescence ratio: 1.05

## CCGCTCACGG
  switch fluorescence ratio: 1.11

## ATCATGGGAG
  switch fluorescence ratio: 1

## CCGGGTGCAT
  switch fluorescence ratio: 1.94

## GGTTAATTCA
  switch fluorescence ratio: 1.01

## TACAATTTGT
  switch fluorescence ratio: 0.921

## GTTAAGTTGG
  switch fluorescence ratio: 0.996

## TGCACGTGCT
  switch fluorescence ratio: 1.03

## ATGGGTGTT
  switch fluorescence ratio: 1.02

## CTATGGACTT
  switch fluorescence ratio: 1.06

## GCAGTTTATC
  switch fluorescence ratio: 1.02

## ATGCACTTTG
  switch fluorescence ratio: 1.04

## CTGTGAATGC
  switch fluorescence ratio: 1.37

## ACCGGCTTCC
  switch fluorescence ratio: 1.09

## TCATATTGCC
  switch fluorescence ratio: 1.04

## ACCGAGTGGG
  switch fluorescence ratio: 1.02

## TTGCCGAAAA
  switch fluorescence ratio: 1.02

## GTGGCGTCTT
  switch fluorescence ratio: 1

## CGGAATATCA
  switch fluorescence ratio: 1.11

## GTGTAACTGC
  switch fluorescence ratio: 0.989

## TGATTGTTCC
  switch fluorescence ratio: 1.01

## CTTCGAGTAA
  switch fluorescence ratio: 1.09

## CCAGGTAGTG
  switch fluorescence ratio: 1.25

## CAGGGGGCGC
  switch fluorescence ratio: 1.03

## TAGCACACAC
  switch fluorescence ratio: 1.47

## TCCTTGGTGT
  switch fluorescence ratio: 1.21

## GGACAAAAAA
  switch fluorescence ratio: 1

## ACGTAAAGT
  switch fluorescence ratio: 1.04

## AACCCGCGGT
  switch fluorescence ratio: 1.02

## ACGCCAAAGT
  switch fluorescence ratio: 1.06

## CCGTCCTCAT
  switch fluorescence ratio: 1.41

## GTTTGTACAA
  switch fluorescence ratio: 0.971

## AATGCAAAAG
  switch fluorescence ratio: 0.989

## TCCTTGTA
  switch fluorescence ratio: 1

## TGACTCGGTC
  switch fluorescence ratio: 0.969

## TTCGAGCGGG
  switch fluorescence ratio: 0.995

## GGCAACAGG
  switch fluorescence ratio: 1.08

## GGTTAGAAGT
  switch fluorescence ratio: 0.98

## CGAATGATCG
  switch fluorescence ratio: 1.01

## CAGCTGCTAA
  switch fluorescence ratio: 1.12

## TGCTTATACG
  switch fluorescence ratio: 1.04

## CATATAAATT
  switch fluorescence ratio: 0.984

## GGACAGGTGC
  switch fluorescence ratio: 1.77

## CTGTGGGGCT
  switch fluorescence ratio: 1.04

## TGGGGTGAAT
  switch fluorescence ratio: 0.987

## TTGTTCAATG
  switch fluorescence ratio: 1.01

## GTGAATTCGT
  switch fluorescence ratio: 0.946

## ACGAAAGCTC
  switch fluorescence ratio: 1.14

## GTTTTGTGCG
  switch fluorescence ratio: 1

## TTGTTTCCTT
  switch fluorescence ratio: 1.05

## CGGTGGTTCA
  switch fluorescence ratio: 0.982

## GTACTGATGG
  switch fluorescence ratio: 1.06

## CATCACCTTT
  switch fluorescence ratio: 0.98

## AGAGAAGTGG
  switch fluorescence ratio: 0.958

## CGCGGTATT
  switch fluorescence ratio: 2.06

## TTGGCAAATT
  switch fluorescence ratio: 1.05

## CTGGAGCCCC
  switch fluorescence ratio: 2.07

## GAGCGCTGGG
  switch fluorescence ratio: 0.984

## TTACAGGTGG
  switch fluorescence ratio: 0.975

## TAAAGTGCTA
  switch fluorescence ratio: 1.01

## AGTTACAAGT
  switch fluorescence ratio: 1.02

## ATCTGTTGAG
  switch fluorescence ratio: 0.979

## GAGTTCGTTG
  switch fluorescence ratio: 0.995

## ACTATTCGGA
  switch fluorescence ratio: 0.963

## GTACCAGCCT
  switch fluorescence ratio: 1.06

## AGCGGTATCT
  switch fluorescence ratio: 1.06

## GTGACGCTGA
  switch fluorescence ratio: 1.14

## AGGCGCAGT
  switch fluorescence ratio: 1.05

## GCATGCATGT
  switch fluorescence ratio: 0.993

## AGTGCAGGCG
  switch fluorescence ratio: 0.942

## ACACCAAGTA
  switch fluorescence ratio: 1.02

## ACAATAGGGG
  switch fluorescence ratio: 0.979

## AGAATGTTCG
  switch fluorescence ratio: 0.915

## AAATAATATC
  switch fluorescence ratio: 1.02

## GTATAAAAAC
  switch fluorescence ratio: 1

## AGTGTTGGCA
  switch fluorescence ratio: 1.02

## TACATTGTAG
  switch fluorescence ratio: 1.01

## TGTAGGTGTG
  switch fluorescence ratio: 0.976

## TAATTGGCCA
  switch fluorescence ratio: 0.966

## ATGCGCGCAC
  switch fluorescence ratio: 1.01

## GGATCATCCA
  switch fluorescence ratio: 0.995

## CAGGTGATGT
  switch fluorescence ratio: 1.3

## TCATTTAGAT
  switch fluorescence ratio: 1.01

## CGTCTGATCC
  switch fluorescence ratio: 1.07

## AAGGGCTTG
  switch fluorescence ratio: 1.03

## ACTATAGGG
  switch fluorescence ratio: 1.02

## GAAGTAATCT
  switch fluorescence ratio: 1.05

## TGAAGATTGA
  switch fluorescence ratio: 1.04

## ATTGTAGGTC
  switch fluorescence ratio: 1

## GTACCAGTAC
  switch fluorescence ratio: 1.12

## GGAGCCAGAT
  switch fluorescence ratio: 0.994

## ATGTAGATCG
  switch fluorescence ratio: 0.97

## TCGATAGGGC
  switch fluorescence ratio: 1

## ACCTCGAGTA
  switch fluorescence ratio: 1.06

## CCCGTTCGCG
  switch fluorescence ratio: 1.03

## GAAATCCAGA
  switch fluorescence ratio: 0.951

## TCATTCCCAT
  switch fluorescence ratio: 1

## GATTTGTCCC
  switch fluorescence ratio: 0.957

## TTTACCCTTC
  switch fluorescence ratio: 1.09

## AGTTGACACG
  switch fluorescence ratio: 1.02

## GTAGGTCCCT
  switch fluorescence ratio: 1.01

## AGCTTTTTT
  switch fluorescence ratio: 0.963

## TTTGCAGTA
  switch fluorescence ratio: 1.07

## CATACGGCAA
  switch fluorescence ratio: 1.23

## GTGGCGCGCG
  switch fluorescence ratio: 0.979

## AAAAAGTCCG
  switch fluorescence ratio: 0.998

## CCCTTATGTC
  switch fluorescence ratio: 0.999

## AAACGGGG
  switch fluorescence ratio: 1.01

## TGCTCGCTCA
  switch fluorescence ratio: 1.01

## GTAGGACAGG
  switch fluorescence ratio: 0.999

## ATATTGACA
  switch fluorescence ratio: 1.03

## GGTGGGAGAT
  switch fluorescence ratio: 0.972

## GGAGTTGGTT
  switch fluorescence ratio: 0.98

## TGAACGGCTG
  switch fluorescence ratio: 1.09

## CCTATGCTCG
  switch fluorescence ratio: 1.03

## ATACGTCAAG
  switch fluorescence ratio: 1.01

## CGTTTCCGGG
  switch fluorescence ratio: 0.991

## GGGAGTAACG
  switch fluorescence ratio: 0.991

## ACTTCCTTAT
  switch fluorescence ratio: 1.09

## AAAATCCTTA
  switch fluorescence ratio: 1.03

## CCCCACCGAG
  switch fluorescence ratio: 1.06

## TTGATTGAGT
  switch fluorescence ratio: 0.997

## ATCTACCCCG
  switch fluorescence ratio: 1.19

## GAGGGTCAGG
  switch fluorescence ratio: 0.994

## TAGGACTATA
  switch fluorescence ratio: 1

## GAGATGAGAG
  switch fluorescence ratio: 1.02

## CAACGTTGCT
  switch fluorescence ratio: 0.996

## GTGCGAAGGT
  switch fluorescence ratio: 0.991

## AAGAGGAACT
  switch fluorescence ratio: 1.04

## ACGCCTCTGG
  switch fluorescence ratio: 1.02

## TTTTAGCCTT
  switch fluorescence ratio: 1.03

## TCTGAAAATA
  switch fluorescence ratio: 1.91

## TTATCTCGAC
  switch fluorescence ratio: 1.04

## CTATGCGTCT
  switch fluorescence ratio: 0.914

## ACGTGACTCA
  switch fluorescence ratio: 1.29

## AGGCTTATCA
  switch fluorescence ratio: 0.962

## GCGGCCTCTC
  switch fluorescence ratio: 1.06

## GATATAATT
  switch fluorescence ratio: 1.01

## GCCACAAAAG
  switch fluorescence ratio: 0.965

## CTGCTGGGTC
  switch fluorescence ratio: 1.02

## ATAGCAGGAG
  switch fluorescence ratio: 1.09

## GGTGAAACCA
  switch fluorescence ratio: 0.982

## TCAGAAGATA
  switch fluorescence ratio: 1.05

## GTTTACGTAA
  switch fluorescence ratio: 1.07

## TGCGGTTAAA
  switch fluorescence ratio: 0.997

## TTAGCATTC
  switch fluorescence ratio: 1.55

## TCGTTGCGGG
  switch fluorescence ratio: 1

## GATATTTTAC
  switch fluorescence ratio: 1.04

## CAACGATGTG
  switch fluorescence ratio: 1.03

## TGATTTGCAT
  switch fluorescence ratio: 1.02

## GATTCTTTTT
  switch fluorescence ratio: 1.03

## TTCTCGTTCC
  switch fluorescence ratio: 1.19

## GGGGACTTAA
  switch fluorescence ratio: 1.01

## ATATAGATG
  switch fluorescence ratio: 1.02

## AAGGGTCCTG
  switch fluorescence ratio: 0.988

## GGTTATAC
  switch fluorescence ratio: 1.05

## AAGCGAGGTG
  switch fluorescence ratio: 1.01

## CAATTTGGT
  switch fluorescence ratio: 1.02

## AGGCGGTTAG
  switch fluorescence ratio: 1.07

## CCGGTCGGTT
  switch fluorescence ratio: 1.02

## ACAAAGCGCG
  switch fluorescence ratio: 0.994

## ATATCGTCTC
  switch fluorescence ratio: 0.976

## GCCGGGTAGC
  switch fluorescence ratio: 1.01

## TAGTCTGGAT
  switch fluorescence ratio: 0.987

## TTGCTTTAT
  switch fluorescence ratio: 1

## TGTTGGGAT
  switch fluorescence ratio: 0.979

## TTCTAAAAAC
  switch fluorescence ratio: 1.07

## GGAGGCCCAT
  switch fluorescence ratio: 1.01

## CGAAAAAATA
  switch fluorescence ratio: 1.03

## ACAAGGGGGC
  switch fluorescence ratio: 1.06

## ATCAGCCAAG
  switch fluorescence ratio: 1.03

## ATCATAATAA
  switch fluorescence ratio: 1.04

## TTGGTTATA
  switch fluorescence ratio: 0.999

## ACGCCATTAT
  switch fluorescence ratio: 0.977

## TATCCGTATT
  switch fluorescence ratio: 1.08

## AAGATTGTTC
  switch fluorescence ratio: 1.01

## AGAGATCAAT
  switch fluorescence ratio: 1.01

## GGTGTTGAAA
  switch fluorescence ratio: 0.966

## TTTGAGCGAC
  switch fluorescence ratio: 1.04

## GAAAACAAAG
  switch fluorescence ratio: 0.978

## TTGCTCCACG
  switch fluorescence ratio: 1.03

## TGACCTTTGA
  switch fluorescence ratio: 1.04

## CCGTCCGAA
  switch fluorescence ratio: 0.978

## CGTGACGGG
  switch fluorescence ratio: 1.02

## CCATACTCAG
  switch fluorescence ratio: 1.16

## CGGTTCTATA
  switch fluorescence ratio: 1.02

## AAGTTACTAT
  switch fluorescence ratio: 1.04

## CAGGGCACTC
  switch fluorescence ratio: 1.01

## TTACTGTCGC
  switch fluorescence ratio: 1.06
